In all, about 33,000 sequences were measured (“E-score (-0.5 to 0.5)”: median about -0.021, highest 2% from about 0.32 on). The list shows a part of the results.
Molecular target: T1, Zap1 (UniProt P47043)
T1 sequence: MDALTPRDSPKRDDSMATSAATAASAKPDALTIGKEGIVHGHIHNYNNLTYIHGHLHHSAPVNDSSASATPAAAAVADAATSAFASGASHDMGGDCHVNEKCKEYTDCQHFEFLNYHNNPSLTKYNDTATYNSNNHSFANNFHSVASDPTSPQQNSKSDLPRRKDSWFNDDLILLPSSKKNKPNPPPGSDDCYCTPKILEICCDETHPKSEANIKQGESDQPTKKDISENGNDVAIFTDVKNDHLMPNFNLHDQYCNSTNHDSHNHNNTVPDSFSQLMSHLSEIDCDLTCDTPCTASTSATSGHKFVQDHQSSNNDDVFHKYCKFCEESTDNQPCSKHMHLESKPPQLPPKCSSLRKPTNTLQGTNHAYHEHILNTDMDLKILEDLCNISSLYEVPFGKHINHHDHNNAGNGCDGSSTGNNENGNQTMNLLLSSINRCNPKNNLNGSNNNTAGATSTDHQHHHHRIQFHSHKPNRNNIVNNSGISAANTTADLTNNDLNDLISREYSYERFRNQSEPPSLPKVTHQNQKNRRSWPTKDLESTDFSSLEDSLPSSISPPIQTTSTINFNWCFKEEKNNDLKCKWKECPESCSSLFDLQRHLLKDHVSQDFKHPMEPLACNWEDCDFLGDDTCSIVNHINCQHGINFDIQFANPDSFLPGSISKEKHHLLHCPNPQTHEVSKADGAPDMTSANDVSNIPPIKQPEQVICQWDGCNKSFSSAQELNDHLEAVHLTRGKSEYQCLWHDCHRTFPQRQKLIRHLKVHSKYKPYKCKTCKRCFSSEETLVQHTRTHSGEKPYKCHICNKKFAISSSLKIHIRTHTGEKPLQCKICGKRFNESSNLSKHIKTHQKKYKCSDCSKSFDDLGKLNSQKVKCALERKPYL
Assay: PBM E-score (8-mer binding enrichment) (E-score (-0.5 to 0.5)); higher = stronger / more preferred TF binding; most listed sequences are background and not binding sites
Settings: protein concentration: 200 nM; construct: GST-full length
In short: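 Universal all-10-mer Agilent arrays, fresh or stripped once, were converted to double-stranded form by primer extension. GST-tagged yeast transcription factors from PURExpress in vitro transcription/translation, full-length or DNA-binding domain only, were applied at about 100-200 nM and detected with fluorescent anti-GST. After masliner normalisation, the Universal PBM Analysis Suite scored each ungapped eight-base word together with its reverse complement by E-score.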

Sequence	PBM E-score
GGGGTTTA	0.126
AAGGGGCA	-0.142
ACCCTACT	0.329
CAAATCTC	-0.0633
CTGATCTC	-0.106
GCACAACC	0.199
ATTATGGA	0.126
AAATGGGT	0.265
CAGTTGCC	-0.139
GAAACGCC	-0.199
AGTTTCGG	0.145
TGCAGCAA	0.0389
AGACAGGA	0.0939
CCGGGGGA	-0.089
GAGGCATC	-0.275
ATCGCTGC	-0.0832
ATGCAATG	-0.05
ATGAGCCC	-0.192
GCGTTGGA	-0.205
CCAGCCTC	-0.145
CATTATAC	0.127
CTCATTCA	0.0628
CTTAAGAA	0.0985
AAACGGAC	-0.0663

Sequence	PBM E-score
GAGCCTGC	-0.396
CCAAGTCC	-0.131
TCATGTCA	0.134
AAGGCGCC	-0.125
TAAAGCCA	0.00455
CTGGGATC	-0.183
CAGAATAG	0.106
ACGTCCTG	-0.251
GCCCGGAA	-0.0366
CTAACATC	0.0131
ACAAGGCT	-0.249
CCACCGCG	0.0738
TACGTCGA	-0.269
TACTCCGA	-0.0231
AATCGTCC	-0.191
CCAGTGAG	-0.0795
CCTGTCCA	-0.108
ACATGGCT	-0.059
ATGGATTA	-0.103
CCTCATAA	0.168
AGTTGGTG	-0.0307
GCGGCGAC	0.00062
CCACCGGA	0.038
ACAACCAC	0.361

Sequence	PBM E-score
ATCATTGC	-0.123
CTTCGGAC	-0.0446
AGACAAGC	-0.0265
TGATACCA	0.0529
AAATCGAC	0.108
GAGAGATC	-0.0248
AATTGGGT	0.285
TCGATGCA	-0.26
CGTAGCAC	-0.0744
AAACGCTC	-0.162
CTGACGTC	-0.11
ATCGCCCA	-0.169
AGCCGGCG	0.129
ACACGACA	0.108
GTAGAGCA	-0.0982
TCCGTAAA	0.0502
CAGGCCGA	-0.103
CCCTCGGA	0.273
ACAACGAT	-0.104
CTTCTCAC	-0.17
CGACCCAG	0.0483
TCTGACCA	0.214
CCTCGCAC	-0.0237
ACTCTGGG	0.00027

Sequence	PBM E-score
AGCGCTCG	-0.252
CGATAACG	-0.174
CATGCATC	-0.0712
ACCAAAAT	0.273
ACCCCGGC	0.119
ACCCCCCC	-0.35
CTCAAGTA	-0.0233
AGGCCAGC	-0.147
GATAACGC	-0.11
CAGATACA	0.0912
TAGGTACA	-0.0387
CAACATCA	-0.0421
CCTGCGGA	0.101
CGCTGCCA	-0.309
CCACGATC	0.209
GTCTTTGA	-0.0575
AGCAGACG	-0.286
ACGTTTAT	0.0998
GATGAGGA	0.0131
GGATTGAA	0.00501
ATTCGAGC	-0.169
TATAGACA	0.0837

— the supplement of paper PMC3334620
